From PubChem BioAssay AID1745845 (National Center for Advancing Translational Sciences (NCATS), 2022)
Where “and” joins values, the source holds several entries; their conditions need not be identical. Equal entries are not always repeated. Among all 360,000 compounds or so, about 2,600 (0.72%) were called active. This list was built around the results that the source calls inconclusive (neither active nor inactive); the mix of calls is not that of the screen. Calls follow the shape of the dose curve; as a rule, active = well fitted inhibition curve with a large enough effect; inconclusive = small, poorly fitted or top-dose-only effect; inactive = no such curve, though single readings can be large or run the other way. Where the call is inconclusive, the potency comes from a doubtful curve fit.
% is scaled to controls: 0 for no effect and ±100 for the full control effect; potency is read from the fitted curve at half-maximal effect; tags tell the direction and shape of the fitted curve.

Assay: Primary qHTS for Inhibitors of ATXN expression; also: nearly all actives have a fitted effect of over 55% in size
Conditions: HEK-293 ATXN2-luciferase reporter, luminescence, 24 h; activity change, negative = inhibition: at 57 µM (top of the series)
Method in brief: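 ATXN2-luciferase reporter cells (luciferase flanked by upstream and downstream ATXN2 gene portions) were treated 24 h at 37 °C with compounds at up to 57 uM. SteadyGlo luminescence gave expression; GF-AFC fluorescence gave viability.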
In the case of O=C(CC1SC(=Nc2ccccc2)N(Cc2ccccn2)C1=O)Nc1ccc(Br)cc1 (stereo not drawn), the Potency is reported as inconclusive: 31.6 µM [inhibitor, single point]. With CCc1ccc(-c2[nH]nc3nc(-c4ccc(OC)cc4)cc(C(=O)NCCc4ccc(OC)c(OC)c4)c23)cc1 the Potency was inconclusive: 31.6 µM [inhibitor, partial curve, poor fit]. With CNC(=O)c1nnsc1S(=O)(=O)c1ccc(Cl)cc1 the Potency was inconclusive: 39.8 µM [inhibitor, single point]. For CN(C)C1CCN(Cc2cc(COCc3ccccc3)c3cccnc3c2O)C1 (stereo not drawn), the Potency was inconclusive: 3.55 µM [inhibitor, full curve]. With COc1ccccc1N1CCN(S(=O)(=O)c2c(C)sc3ncn(CC(=O)Nc4ccccc4F)c(=O)c23)CC1 the Potency was “inactive”. For CCC(=O)N1CCc2cc(Br)cc(S(=O)(=O)N3CCCC(C(=O)NCc4ccccc4)C3)c21 (stereo not drawn), the Potency was “inactive”. With Cc1ccccc1OCC(=O)Nc1cc(-c2cccc(Br)c2)nn1-c1ccccc1 the Potency was “inactive”. With COC(=O)/C(=N\Nc1ccc(Cl)cc1)Sc1nnc(-c2ccc(OC)cc2)n1C the Potency was “inactive”. With Nc1nc(CN2CCN(c3ccccc3)CC2)nc(N2CCCc3ccccc32)n1 the Potency was “inactive”. With Cc1ccc(CNC(=O)c2cc(-c3ccccc3)nn2Cc2cc(C)no2)cc1 the Potency was “inactive”. With COc1ccc(C(C)(O)c2nc(-c3cnc4ccccc4c3)cs2)cc1 (stereo not drawn) the Potency was “inactive”. For CCOC(=O)c1cccc(NC(=O)C(C)n2nc(C)c3c(C)n(-c4ccccc4)nc3c2=O)c1 (stereo not drawn), the Potency was “inactive”. For COc1cc(/C=C/C(=O)CC(=O)/C=C/c2ccc(O)c(OC)c2)ccc1O, the Potency was inconclusive: 39.8 µM [inhibitor, single point]. For COc1cc(/C=C2\SC(N)=NC2=O)ccc1O, the Potency was inconclusive: 39.8 µM [inhibitor, single point]. In the case of N#C/C(=C\C=C\c1ccccc1[N+](=O)[O-])C(=O)NCc1ccccc1, the Potency is reported as active: 28.2 µM. With Cc1cccc(CS(=O)(=O)c2nnc([C@H](Cc3ccccc3)NC(=O)OC(C)(C)C)o2)c1 the Potency was active: 7.94 µM. With COC(=O)c1[nH]c2cc(OC)ccc2c1NC(=O)CN1CCN(c2cccc(C)c2)C(C)C1 (stereo not drawn) the Potency was inconclusive: 35.5 µM [inhibitor, single point]. For CCNc1ccc(Br)cc(C(=O)/C=C/c2ccc(Cl)cc2)c1=O, the Potency was active: 22.4 µM. In the case of CCCn1c(CN2CCN(C)CC2)nc2ccccc21, the Potency is reported as “inactive”. With COC(=O)c1nn(-c2ccc(-c3ccccc3)cc2)cc1O the Potency was inconclusive: 31.6 µM [inhibitor, partial curve, poor fit]. With Cc1cc(C)c(OCCCCN2CCNCC2)c(C)c1 the Potency was inconclusive: 21.2 µM [inhibitor, single point]. With CC(C)(C)c1ccc(C(=O)NCCCN2CCN(CCCNC(=O)c3ccc(C(C)(C)C)cc3)CC2)cc1 the Potency was inconclusive: 25.1 µM [inhibitor, single point]. In the case of Cc1ccc(-n2nnnc2SCC(=O)Nc2nc(-c3ccc(F)cc3)cs2)cc1C, the Potency is reported as inconclusive: 39.8 µM [inhibitor, single point]. For CCOC(=O)c1n[nH]n2c1nc(=S)c1ccccc12, the Potency was “inactive”. For CCOc1ccc2nc(NCCNC(=O)Nc3cccc(C)c3)c(C#N)cc2c1, the Potency was inconclusive: 14.1 µM [inhibitor, partial curve, poor fit]. With COc1cc(/C=C/C(=O)c2ccc3c(c2)OCO3)cc(OC)c1OC the Potency was inconclusive: 39.8 µM [inhibitor, single point]. With CC1(C)C(C=C(Cl)Cl)C1C(=O)N1CCN(Cc2ccccc2)CC1 (stereo not drawn) the Potency was “inactive”. In the case of O=C(Cc1c[nH]c2ccccc12)N[C@@H](Cc1c[nH]c2ccccc12)C(=O)O, the Potency is reported as “inactive”. In the case of CC(SC(C)C(=O)NN=Cc1cccc(Cl)c1)C(=O)NN=Cc1cccc(Cl)c1 (stereo not drawn), the Potency is reported as inconclusive: 11.2 µM [inhibitor, partial curve, poor fit]. With CCOc1ccc(NS(=O)(=O)c2ccc(C(=O)N(C)CC(=O)Nc3cccc(OC)c3)cc2)cc1 the Potency was inconclusive: 14.1 µM [inhibitor, partial curve, poor fit]. For CCCCCCCCN1C(=O)[C@H](CC(=O)NCc2ccc(C)o2)C[C@@]2(C(=O)OC)CCCCC=C12, the Potency was inconclusive: 39.8 µM [inhibitor, single point]. In the case of O=C(CN1C(=O)COc2ccc(S(=O)(=O)NC3CCCC3)cc21)Nc1ccc(Cl)cc1F, the Potency is reported as “inactive”. For N=c1n(CC(=O)c2ccc(Br)cc2)c2ccccc2n1Cc1ccccc1, the Potency was inconclusive: 35.5 µM [inhibitor, single point]. With O=C1C(SCCO)=C(SCCO)C(=O)c2ccccc21 the Potency was inconclusive: 11.2 µM [inhibitor, full curve, poor fit]. For CC[n+]1c(/C=C/C=C/N(C(C)=O)c2ccccc2)sc2ccccc21, the Potency was inconclusive: 35.5 µM [inhibitor, single point]. In the case of [2H]c1c([2H])c([2H])c(-c2nc(N3CCCCCC3)sc2C(=O)c2ccccc2)c([2H])c1[2H], the Potency is reported as “inactive”. With Cc1cc(O)c(C(C)C)cc1N=Cc1ccc(N(C)C)cc1 the Potency was inconclusive: 31.6 µM [inhibitor, single point]. In the case of CCSc1ncc(Cl)c(C(=O)Nc2ccccc2OC)n1, the activity change, negative = inhibition is reported as inconclusive: -45.6% [inhibitor]. In the case of Cc1ccc(NC(=O)C2CSC3(C)CCC(=O)N23)cc1S(=O)(=O)N1CCCCCC1 (stereo not drawn), the Potency is reported as inconclusive: 39.8 µM [inhibitor, single point]. In the case of O=C(Cc1cccs1)N/N=C/C(Cl)=C/c1ccccc1, the Potency is reported as “inactive”. With COc1ccc(N2CCN(c3ncnc4c3[nH]c3ccccc34)CC2)cc1 the Potency was inconclusive: 3.55 µM [inhibitor, full curve, poor fit]. In the case of Cc1cc(C)nc(Sc2nc(C)nc3c2oc2ccccc23)n1, the Potency is reported as “inactive”. In the case of CN(Cc1ccccc1)C(c1ccnc2ccccc12)c1nnnn1-c1ccc2c(c1)OCCO2 (stereo not drawn), the Potency is reported as inconclusive: 39.8 µM [inhibitor, single point]. With CCOc1ccc(/C(CCC(=O)O)=N/NC(=S)NC(C)C)cc1 the Potency was “inactive”. For O=C(Nc1cccc(F)c1)N(Cc1ccc(Cl)cc1)CC(O)C(F)(F)F (stereo not drawn), the Potency was inconclusive: 25.1 µM [inhibitor, partial curve, poor fit]. With COC1OCC(O)C(OC(=O)c2ccccc2)C1OC(=O)c1ccccc1 (stereo not drawn) the Potency was “inactive”. With O=S1(=O)CCN(c2ccccc2CC(c2c[nH]c3ccccc23)c2c[nH]c3ccccc23)CC1 the Potency was inconclusive: 39.8 µM [inhibitor, single point]. In the case of Cc1ccc(S(=O)(=O)SC/C=C/CSS(=O)(=O)c2ccc(C)cc2)cc1, the Potency is reported as inconclusive: 25.1 µM [inhibitor, partial curve, poor fit]. For O=C(N/N=C/c1ccccn1)c1cc(Br)ccc1O, the Potency was inconclusive: 31.6 µM [inhibitor, single point]. For O=C(c1cccc(S(=O)(=O)N2CCOCC2)c1)N(CCc1ccccc1)Cc1ccccc1, the Potency was inconclusive: 31.6 µM [inhibitor, single point]. With CCOC(=O)c1c(CN2CCCCC2)n(C)c2cc(Br)c(OC)cc12 the Potency was inconclusive: 25.1 µM [inhibitor, partial curve, poor fit]. For COc1ccc(C(CC(=O)c2ccc(C)cc2)C(C#N)C#N)cc1OC (stereo not drawn), the Potency was inconclusive: 23.8 µM [inhibitor, single point]. With Cc1cc(OCC(=O)N2CCN(c3ccccn3)CC2)cc(C)c1Br the Potency was “inactive”. For Cc1cccc(CNS(=O)(=O)c2ccc(-c3cnc(C4CC4)o3)cc2)c1, the Potency was inconclusive: 39.8 µM [inhibitor, single point]. For CC1CCN(CC(=O)Nc2ccccc2C(=O)c2ccccc2)CC1, the Potency was “inactive”. With CCCCn1c(CCl)nc2cc(S(=O)(=O)N3CCOCC3)ccc21 the Potency was inconclusive: 7.08 µM [inhibitor, partial curve]. In the case of CN(C)c1ccc(-c2nc3cc(N)ccc3o2)cc1, the Potency is reported as inconclusive: 11.2 µM [inhibitor, single point]. In the case of O=C(C1CCN(S(=O)(=O)c2ccccc2)CC1)N1CCN(Cc2ccc3c(c2)OCO3)CC1, the Potency is reported as “inactive”. With Cc1cc(Br)ccc1NC(=O)CN(C)C(=O)c1cc([N+](=O)[O-])ccc1N1CCOCC1 the Potency was “inactive”. With COc1ccc(-c2nnc(SCc3cc(=O)c4cc(C)cc(C)c4[nH]3)n2C)cc1 the Potency was inconclusive: 17.8 µM [inhibitor, partial curve]. With COc1ccccc1NC(=O)c1cc2ccc3cccnc3c2[nH]1 the Potency was inconclusive: 39.8 µM [inhibitor, single point]. In the case of O=C(CCl)c1ccc(Cc2ncc(C(F)(F)F)cc2Cl)s1, the Potency is reported as inconclusive: 39.8 µM [inhibitor, single point]. In the case of COc1ccc(-c2csc(Cc3nc(O)cs3)n2)cc1, the Potency is reported as inconclusive: 39.8 µM [inhibitor, single point]. In the case of Cc1cc(NC(=O)CC23CC4CC(C2)CC(CC(=O)Nc2cc(C)on2)(C4)C3)no1, the Potency is reported as “inactive”. With O=C(c1ccccc1)C(CCC(CN1CCOCC1)C(=O)c1ccccc1)CN1CCOCC1 (stereo not drawn) the Potency was active: 22.4 µM. For COc1ccc(CNC(=O)C[C@H]2C[C@H](C(=O)N3CCCCC3)[C@@]3(C)c4[nH]c5cc(-c6ccco6)ccc5c4CCN3C2=O)cc1OC, the Potency was inconclusive: 39.8 µM [inhibitor, single point]. With Cc1c(Cl)ccc2c(C(O)CBr)cc(-c3ccccc3)nc12 (stereo not drawn) the Potency was “inactive”. For CCN1CCN(CCCNC(=O)c2cc3c(s2)-c2ccccc2OC3)CC1, the Potency was inconclusive: 20 µM [inhibitor, partial curve, poor fit] and inconclusive: 22.4 µM [inhibitor, partial curve, poor fit].
